# From the supplement of paper PMC3334620
# In all, about 33,000 sequences were measured (“E-score (-0.5 to 0.5)”: median about -0.043, highest 2% from about 0.37 on). Some of the results follow.
# Target: T1, Upc2 (UniProt Q12151)
# T1 sequence: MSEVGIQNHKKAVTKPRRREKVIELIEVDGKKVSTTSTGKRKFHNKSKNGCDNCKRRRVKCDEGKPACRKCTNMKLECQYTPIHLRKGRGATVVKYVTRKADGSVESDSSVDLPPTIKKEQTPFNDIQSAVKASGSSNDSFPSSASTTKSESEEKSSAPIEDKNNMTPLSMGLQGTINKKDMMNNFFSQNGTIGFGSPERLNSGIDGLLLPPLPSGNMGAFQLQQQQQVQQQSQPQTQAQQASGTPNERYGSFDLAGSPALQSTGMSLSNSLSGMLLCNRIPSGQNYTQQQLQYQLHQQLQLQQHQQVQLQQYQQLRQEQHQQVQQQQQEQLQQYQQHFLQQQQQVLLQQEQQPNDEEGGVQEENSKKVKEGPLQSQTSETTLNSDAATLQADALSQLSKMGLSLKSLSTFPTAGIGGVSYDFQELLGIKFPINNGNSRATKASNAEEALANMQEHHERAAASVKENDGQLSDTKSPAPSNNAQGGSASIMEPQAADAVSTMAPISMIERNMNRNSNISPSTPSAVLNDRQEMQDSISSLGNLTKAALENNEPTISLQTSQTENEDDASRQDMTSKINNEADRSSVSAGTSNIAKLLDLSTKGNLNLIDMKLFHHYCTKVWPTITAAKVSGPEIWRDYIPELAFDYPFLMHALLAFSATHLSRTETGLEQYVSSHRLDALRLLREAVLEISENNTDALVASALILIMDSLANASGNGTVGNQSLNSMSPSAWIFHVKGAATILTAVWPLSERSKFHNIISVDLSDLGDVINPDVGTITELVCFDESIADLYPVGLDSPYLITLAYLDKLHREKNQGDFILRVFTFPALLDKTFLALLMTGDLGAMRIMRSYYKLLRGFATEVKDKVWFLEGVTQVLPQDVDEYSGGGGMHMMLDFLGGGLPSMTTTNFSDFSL
# Test: PBM E-score (8-mer binding enrichment) (E-score (-0.5 to 0.5)); higher = stronger / more preferred TF binding; most listed sequences are background and not binding sites
# Conditions: protein concentration: 200 nM; construct: GST-full length
# In short: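 GST-tagged yeast TFs (full-length or DNA-binding domain) were made by PURExpress in vitro transcription/translation and applied at about 100-200 nM to universal all-10-mer Agilent arrays. The arrays were made double-stranded by primer extension, on fresh or once-stripped slides. Bound protein was detected with fluorescent anti-GST, and scans were normalised with masliner. Each ungapped eight-base word, pooled with its reverse complement, received an E-score (modified Wilcoxon-Mann-Whitney statistic) from the Universal PBM Analysis Suite.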
row,Sequence,PBM E-score
1,ACTCTTAG,-0.149
2,GATCTCCA,-0.174
3,ATCCGCCA,-0.171
4,GATATCGA,0.071
5,GAACCAAC,-0.0128
6,ATCGAATG,-0.143
7,CTATGTAA,-0.115
8,CGATCCAA,0.0303
9,AGCACTAT,-0.0413
10,CACACTTA,-0.00527
11,GAGGAGTA,-0.0426
12,GCAACGTA,0.172
13,AGTGGCTG,-0.132
14,AGGCCTGA,-0.17
15,AGTCTATC,-0.159
16,CCCTTAAG,0.0123
17,GGTGAACC,0.0141
18,CTCGTGGC,-0.233
19,CCCCGATA,-0.00163
20,CCTAAGTA,-0.0907
21,AACGGCCT,0.19
22,AGTTAGAA,-0.207
23,CCGGTGTA,0.0319
24,CTAAAAGA,0.17
25,AATAACGC,-0.0432

row,Sequence,PBM E-score
1,ACAACATC,-0.134
2,TATATTGA,0.001
3,ATCCGATC,0.127
4,GCTTATCA,-0.18
5,ATATACCA,0.0254
6,ATTAATGG,-0.0334
7,GCTGAGTA,-0.21
8,ACTCGTAC,0.472
9,GGCTAACA,0.0623
10,ATACCGAC,0.194
11,CCAACTGG,-0.0518
12,ATTAACTA,-0.0133
13,AAATATAC,0.204
14,CGACCAAA,0.261
15,CGTATGGA,0.423
16,AACTAGTT,0.0327
17,GTTCTCCA,-0.109
18,TAGGTGGA,-0.209
19,CCATATAG,-0.0573
20,GGATCATA,-0.223
21,AAAGCTGC,-0.0267
22,ACCGGGCA,-0.185
23,ATGCCTCG,0.162
24,CATAAGAG,0.00546
25,AGAAGCTC,0.0431

row,Sequence,PBM E-score
1,AACGGTGG,0.241
2,AGAGAGGG,-0.245
3,CATGCAGC,-0.133
4,GGAGTGCC,-0.101
5,GCCCGACA,-0.215
6,ACGATGAC,0.286
7,CGCGTCCG,-0.082
8,AACCGATG,0.153
9,ATCTTCCC,-0.0334
10,CCAAGATC,0.101
11,GTCAATCA,-0.13
12,AAATGTCT,-0.00329
13,AATGAGCC,-0.26
14,CGCTCGTC,0.127
15,ACTGCACG,-0.16
16,GTTCTAAA,0.0629
17,CGGAGTTA,-0.13
18,TCGAGGAA,0.049
19,CCCCGAGA,-0.241
20,AACACTTG,0.0323
21,GCCTACAA,-0.203
22,ACGTTTCC,-0.0121
23,CGTCCGCA,-0.13
24,GATGATTA,-0.0046
25,CGCTCCAA,0.11

row,Sequence,PBM E-score
1,ACGTTGAC,0.137
2,CAAGGCGG,-0.117
3,AGAAGCTA,-0.0305
4,ATACCCAA,-0.0213
5,AATGGCAC,-0.345
6,GTCCCCAA,-0.0271
7,GCAGGTAA,0.0476
8,AATGCGCG,0.0483
9,GTGGTAGA,-0.172
10,CTCGCGCA,0.115
11,ACACGCCT,-0.156
12,ATCTGCTA,-0.0459
13,AATGACCG,-0.0692
14,CCGTCGAC,-0.137
15,GCTGATAC,0.102
16,CCCCAGGA,-0.29
17,CGACCCCC,-0.0479
18,GAGGTCAC,-0.187
19,ACCGGTGG,-0.139
20,CCACAGAC,-0.169
21,GGACTCAC,-0.17
22,TAATCACA,-0.221
23,ACGAAAGC,0.32
24,ATGAACCG,0.0683
25,ACCTTAAG,-0.00109

row,Sequence,PBM E-score
1,CCCCGAAA,-0.13
2,AATCGTCG,0.118
3,CATATAGA,-0.0729
4,ATCTGGTG,-0.254
5,ATGCCCAA,-0.0832
6,ACGCGATC,0.232
7,AGTCTGAT,-0.163
8,CGAGGACA,0.0681
9,GAGACACC,-0.0586
10,GCCGATGA,-0.244
11,GGCTTCAC,-0.233
12,AAGTGTGT,0.0069
13,GGAAAGGA,-0.187
14,GACCTAAC,0.118
15,AACGCCGG,0.00342
16,CTTCTCGA,-0.187
17,ACTGTGTG,-0.182
18,AACCTAGT,-0.181
19,ATTTTTAC,0.19
20,CGTCTATA,0.0202
21,ACAGTAGT,0.029
22,GCGTAGAA,0.0848
23,CACGACCC,-0.102
24,CCGTCAGA,-0.167
25,CCGCCGGC,-0.23

row,Sequence,PBM E-score
1,CTTTCCCC,-0.213
2,ACTGAAAC,0.171
3,ACACAAAA,0.024
4,ATGTTGTA,0.0483
5,AGCTGCTG,-0.0358
6,CTCCCAGA,-0.147
7,GCCATGGC,-0.412
8,ACAGAAGC,-0.126
9,AGCACCCA,-0.02
10,ATACGAAC,0.472
11,GAGGGGGA,-0.0209
12,AGTTCCTA,0.101
13,ATCATGTG,-0.238
14,AACTTAGT,-0.0639
15,ATAATGCG,0.153
16,GGCTCCCC,-0.136
17,CGGGATAC,0.18
18,ACTGATCG,-0.0553
19,GCCTGGGA,-0.254
20,AAACTACA,-0.0707
21,ACGGCAGA,0.186
22,CATCGAAC,0.135
23,ACCCACCT,-0.21
24,AGTCGAAT,-0.164
25,AACCGTTC,0.271

row,Sequence,PBM E-score
1,AGGTGGGC,-0.168
2,CCTGTCAC,-0.0431
3,TATAACAA,0.0591
4,ATTTCGTC,0.0429
5,CCCGAGGG,0.0883
6,GTGAAGTA,-0.0282
7,AATGAGAA,-0.119
8,CCTGTACC,-0.0294
9,CCGACAAC,0.124
10,CGTCACAG,-0.0583
11,ACGCACAC,0.147
12,AGTGTGAT,0.118
13,ATAAGCGA,0.347
14,ATTGCACA,0.0659
15,CGCACGAC,0.0333
16,CGGGGAGC,0.00537
17,GAGAAGTA,-0.0971
18,CCTCCGAA,-0.136
19,GAACAGGC,-0.0321
20,AATAGCGA,0.112
21,AAACCACT,-0.0194
22,GCCCGGAC,-0.125
23,CTGATTGA,-0.097
24,ACTCGCTA,0.158
25,AATACCTG,-0.0757

row,Sequence,PBM E-score
1,AATAGGTC,0.00213
2,ACCGATTA,0.183
3,ATTCCCAC,-0.232
4,AATGAGGC,-0.0974
5,GCAATCAC,-0.041
6,TAGGCAAA,-0.108
7,AAAGGCGG,0.00912
8,GCACTTCC,-0.358
9,GCACGGTA,-0.0712
10,CTGACTCC,-0.169
11,CTCTTAAC,0.165
12,ACGAGAAC,0.375
13,ACATTTAA,-0.0133
14,ATGTACGC,0.187
15,GCCCGCAC,-0.0934
16,ACGATATG,0.34
17,TACTATAA,0.0792
18,CAGCAACC,-0.116
19,AACGATGA,0.387
20,ACCCATAT,0.155
21,GTTTACGA,0.471
22,ACTCGGAG,-0.107
23,CAGGCGCG,-0.171
24,CCGCTCCG,0.0393
25,CGAGAGCG,0.227

row,Sequence,PBM E-score
1,TATCAAGA,-0.0271
2,AACGCTTG,0.00299
3,ACCTGATC,0.0575
4,TGTATAAA,0.156
5,AAACCCTC,-0.0554
6,ACAGAACC,-0.0301
7,ATGGACAT,-0.0883
8,CCTCTTTA,-0.0357
9,GTAGTGTA,0.0913
10,CCCGTAAG,0.208
11,ACCATTTC,-0.123
12,AACCCATC,0.0211
13,ACTCTGCA,-0.0912
14,GCGAGCCA,0.0419
15,CAGATCGG,-0.232
16,CGTACAGC,0.446
17,ATTATTGG,-0.185
18,GCTAAAGC,-0.12
19,CCTAGATC,-0.189
